# Measurements published in paper PMC4336329 (PLoS ONE, 2015).
# Among all 310,000 compounds or so, about 2,200 (0.71%) showed an effect of 50% or more. The effect is printed as a negative number. The list shows a part of the results.
# Molecular target: human ether-à-go-go-related gene (hERG) potassium channel (human, UniProt Q12809)
# Experiment: primary screen, population patch clamp on CHO cells stably expressing hERG
# Sequence of human ether-à-go-go-related gene (hERG) potassium channel (Q12809 whole entry, looked up): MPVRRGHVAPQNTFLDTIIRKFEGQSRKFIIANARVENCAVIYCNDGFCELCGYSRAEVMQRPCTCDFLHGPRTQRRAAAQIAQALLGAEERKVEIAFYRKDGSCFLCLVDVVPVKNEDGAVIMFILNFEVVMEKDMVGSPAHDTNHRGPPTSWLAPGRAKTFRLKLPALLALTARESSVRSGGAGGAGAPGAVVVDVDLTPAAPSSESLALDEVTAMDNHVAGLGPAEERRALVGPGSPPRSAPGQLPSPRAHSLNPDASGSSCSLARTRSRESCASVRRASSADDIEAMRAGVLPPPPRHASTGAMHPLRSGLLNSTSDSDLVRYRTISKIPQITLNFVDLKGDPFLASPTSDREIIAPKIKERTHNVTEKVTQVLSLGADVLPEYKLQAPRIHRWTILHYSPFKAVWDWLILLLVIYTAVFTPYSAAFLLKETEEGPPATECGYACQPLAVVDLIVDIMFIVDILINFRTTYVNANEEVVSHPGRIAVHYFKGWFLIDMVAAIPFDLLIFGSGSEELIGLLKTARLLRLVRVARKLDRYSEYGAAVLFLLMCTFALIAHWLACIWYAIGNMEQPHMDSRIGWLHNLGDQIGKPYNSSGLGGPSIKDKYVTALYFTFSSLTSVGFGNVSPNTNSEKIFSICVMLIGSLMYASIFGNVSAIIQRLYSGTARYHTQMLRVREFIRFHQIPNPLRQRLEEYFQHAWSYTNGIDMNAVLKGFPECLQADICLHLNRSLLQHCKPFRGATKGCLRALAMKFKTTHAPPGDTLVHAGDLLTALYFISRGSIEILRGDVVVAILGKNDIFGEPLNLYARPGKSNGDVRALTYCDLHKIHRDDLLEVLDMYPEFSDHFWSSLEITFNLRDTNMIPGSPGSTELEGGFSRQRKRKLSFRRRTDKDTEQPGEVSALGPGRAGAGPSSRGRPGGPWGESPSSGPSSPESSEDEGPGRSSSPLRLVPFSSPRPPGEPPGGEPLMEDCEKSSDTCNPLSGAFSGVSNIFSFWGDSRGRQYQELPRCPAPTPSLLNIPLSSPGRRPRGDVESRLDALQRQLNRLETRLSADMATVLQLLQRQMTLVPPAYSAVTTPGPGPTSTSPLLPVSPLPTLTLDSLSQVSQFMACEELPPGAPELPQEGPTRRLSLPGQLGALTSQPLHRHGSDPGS
row,Compound,"hERG current change (%, negative = inhibition) at 1uM [%]"
1,CC(c1ccco1)N(C(=O)c1ccc(C(F)(F)F)cc1)c1ccccn1 (stereo not shown),3.77
2,Clc1cncc(Cl)c1N/N=C/c1ccccc1,6.18
3,COCCNC(=O)CN(Cc1cccs1)C(=O)CCC(=O)Nc1nccs1,15.8
4,N#CC1=C(S)N(c2ccc(F)cc2)C2(CCCCC2)NC1=O,-6.02
5,Oc1ccc(F)c2cccnc12,14.3
6,Cc1nc2cc(-c3cccc(F)c3)nn2c(C)c1CCC(=O)NC(C)CCc1ccco1 (stereo not shown),-11.6
7,CCN(CC)c1ccc(NC(=O)c2c(OC)cccc2OC)c(C)c1,11.6
8,CCN(CC(=O)Nc1c(F)cccc1F)C(=O)c1ccc(=O)[nH]c1,12.6
9,COc1ccc(NC(=O)C2=C(C)Nc3nc(CCCO)nn3C2c2ccc(OC)c(OC)c2)cc1 (stereo not shown),14.7
10,Cn1c(N)c(C(=O)COC(=O)C2CCCN2C(=O)c2cccs2)c(=O)n(C)c1=O (stereo not shown),9.65
11,CC(=O)c1c(COC(=O)c2cccnc2)nc2ccccc2[n+]1[O-],7.9
12,COC(=O)c1cccc(S(=O)(=O)N(Cc2ccco2)Cc2cc3ccc(OC)cc3[nH]c2=O)c1,10.7
13,O=C(O)CCC(=O)NCCC1=c2ccccc2=N/C1=C\c1c(O)n(Cc2ccc(F)cc2)c(=S)[nH]c1=O,12.2
14,CCOc1ccc(C(=O)Nc2c(C(N)=O)oc3ccccc23)cc1,16.1
15,O=C(CCc1c[nH]c2ccccc12)N/N=C/c1ccc2c(c1)OCO2,2.38
16,O=C(Nc1cc(C(=O)N2CCCC2)ccc1N1CCCC1)C1CC1,-1.85
17,COC(=O)NCc1cc2cc(Cl)ccc2[nH]1,-4.99
18,O=c1cc(Cc2ccccc2)[nH]c(=S)[nH]1,9.73
19,Cc1ccc(NC(=O)C2CCN(C(=O)c3ccccc3C)CC2)nc1,8.44
20,COc1ccc(-c2nc(-c3cccc(C(F)(F)F)c3)no2)cc1OC,7.94
21,CCCCn1c(N)c(N(CCOC)C(=O)c2cnc(C)cn2)c(=O)[nH]c1=O,1.79
22,Cc1cccc(C(=O)OCC(=O)NC2CCCCCCC2)c1,15.3

row,Compound,"hERG current change (%, negative = inhibition) at 1uM [%]"
1,NS(=O)(=O)c1cccc(NC(=O)COC(=O)c2cc(-c3ccc(Cl)cc3)nc3ccccc23)c1,10.8
2,Cc1nc(C)c(-c2csc(NCc3ccccc3)n2)s1,3.64
3,CCCOc1ccc(/C=N/NC(=O)C2CC2)c(OCCC)c1,15
4,Cc1ccc2cc(CN(CCN(C)C)C(=S)Nc3ccccc3)c(=O)[nH]c2c1C,5.74
5,CCOc1ccc(C(CC(=O)O)n2cnnn2)cc1 (stereo not shown),3.56
6,CN1CCC(OC(=O)COc2ccc(Cl)cc2Cl)CC1.Cl,-3.11
7,CCCN1CCN(C(c2cc3cc(OCC)ccc3[nH]c2=O)c2nnnn2C2CCCCC2)CC1 (stereo not shown),-13.8
8,COc1cccc(N(CC(=O)NC2CCCC2)C(=O)CCC(=O)Nc2cc(C)on2)c1,3.51
9,CC1=NN(C(=O)c2ccccc2-n2cccc2)C(O)(C(F)(F)F)C1 (stereo not shown),20
10,CN1C(=O)c2ccccc2C(C(=O)O)C1c1cccc(F)c1 (stereo not shown),6.04
11,C[C@H]1C[C@H]2[C@@H]3CCC4=CC(=O)C=C[C@]4(C)[C@@]3(Cl)[C@@H](O)C[C@]2(C)[C@@]1(O)C(=O)CO,4.71
12,O=[N+]([O-])c1ccc(S(=O)(=O)Nc2ncccn2)cc1,16
13,CCN1CCN(C(c2cccs2)C(C)NC(=O)c2ccccc2OC)CC1 (stereo not shown),-6.8
14,COc1ccc(C(=O)N/N=C/c2c(C)nn(-c3ccccc3)c2OC)cc1,-2.56
15,O=C(CSc1cn[nH]n1)Nc1nc2ccccc2s1,6.74
16,Brc1ccccc1-c1nc(-c2ccccc2)no1,1.81
17,O=C(O)CCC(=O)Nc1cccc(-c2nnc(-c3ccccc3)o2)c1,16.6
18,CCOCCN1CCN(c2c(CC)c(C)nc3cc(-c4cc(OC)cc(OC)c4)nn23)CC1,-14
19,O=C(c1ccc(CS(=O)(=O)Cc2ccc(Cl)cc2)o1)N1CCCC1,-6.4
20,Cc1ccc(OC(=S)Nc2ccc(F)cc2)cc1,4.09
21,CCCSc1nnc(NC(=O)Cc2ccc(OC)c(OC)c2)s1,10.4
22,Cc1ccc(N=Nc2[nH]c3ccccc3c2O)cc1,8.3

row,Compound,"hERG current change (%, negative = inhibition) at 1uM [%]"
1,Cc1cc(NC(=O)CSc2nnc(-c3cccc(F)c3)n2N)no1,9.45
2,CCN(CC)CCSc1nnc2c3cc(F)ccc3n(Cc3ccccc3)c2n1,-53.8
3,COC(=O)C1CCN(C(=O)c2ccc(Cl)c(S(=O)(=O)NCc3cccnc3)c2)CC1,17.9
4,Cc1cccc2c(C(=O)N3CCN(C(=O)c4ccco4)CC3)cc(-c3cccc(Br)c3)nc12,4.98
5,CC(Sc1cccc[n+]1[O-])C(=O)Nc1ccc(Oc2ccccc2)cc1 (stereo not shown),7.8
6,COc1ccc(-c2cc(=O)oc3c(C)c(OC(C)C(=O)N4C[C@H]5C[C@@H](C4)c4cccc(=O)n4C5)ccc23)cc1 (stereo partly shown),-19.7
7,CCn1c(SCC(=O)N2CCCC2)nc2ccccc21,6.29
8,CCc1ccc(OCC(=O)NC(=S)Nc2ccc(C(C)=O)cc2)c(Br)c1,6.13
9,CC1(C)COC(c2cccn2Cc2ccc(F)cc2Cl)=N1,15.9
10,CCN(C(=O)COC(=O)c1ccccc1SCC(=O)N1CCCC1)C1CCS(=O)(=O)C1 (stereo not shown),12.6
11,CCN(C(=O)COC(=O)c1nc2nc(C)cc(C)n2n1)C1CCS(=O)(=O)C1 (stereo not shown),11.2
12,CCc1ccccc1NC(=O)N1CCC(NC(=O)C(Cc2ccccc2)NC(C)=O)CC1 (stereo not shown),3.95
13,COC(=O)C1=CN(c2ccc(OC)cc2)C=C(C(=O)OC)C1c1cc(OC)c(OC)cc1OC,1.36
14,CN(C)c1nc(-c2ccccn2)nnc1-c1ccccc1,11.9
15,COc1ccccc1C1NC(=O)CCC1[N+](=O)[O-] (stereo not shown),14.4
16,Cc1ccc2cccc(NC(=S)NC(=O)c3ccccc3)c2n1,9.05
17,COC(=O)C1CC23C=CCN4CCC5(c6ccccc6NC15C2C)C43 (stereo not shown),9.38
18,Cc1cc(NC(=O)CN2CCCCCCC2)no1.O=C(O)C(=O)O,4.68
19,CCOC(=O)C1(CCCc2ccccc2)CCN(C(=O)CCC2=NNC(=O)CC2)CC1,18.2
20,CCOC(=O)N1CCC(N(C(=O)Nc2ccc(Cl)c(Cl)c2)C(C)CC)CC1 (stereo not shown),12
21,Brc1ccc2nc(N3CCN(c4ccccc4)CC3)sc2c1,29.3
22,COc1ccc(C(=O)NC2CCN(CC(=O)NC3CCCCC3)CC2)cc1,-1.11

row,Compound,"hERG current change (%, negative = inhibition) at 1uM [%]"
1,Cc1csc(SC(C)C(=O)NCC(=O)Nc2ccc(F)c(F)c2F)n1 (stereo not shown),21.8
2,CCOC(=O)CSc1nnc(CSc2nc3sc4c(c3c(=O)[nH]2)CCCC4)n1-c1ccccc1,8.67
3,CC1(C)Cc2cccc(OCC(=O)Nc3ccccc3F)c2O1,12.4
4,CCOC(=O)CNC(=O)Cn1cnc2c(cnn2-c2ccc(C)cc2)c1=O,8.67
5,Nc1nnnn1/N=C/c1cccs1,-14.1
6,Cc1ccc(NC(=O)c2cnccn2)c(C)c1,13.6
7,Cc1ccc(CN(C)C(=O)CC2C(=O)NCCN2CC2CCCCC2)cc1 (stereo not shown),13.4
8,O=C(c1cc([N+](=O)[O-])ccc1N1CCN(S(=O)(=O)c2ccc(Cl)c(Cl)c2)CC1)N1CCOCC1,6.99
9,CCC1COCCS(=O)(=O)N1Cc1ccc(F)cc1 (stereo not shown),8.01
10,COc1ccc(/C=C(\C#N)c2c[nH]c3ccccc23)cc1,13.3
11,CCc1ccc(OCC(=O)NNC(=O)c2cc3ccccc3o2)cc1,5.53
12,Cc1ccc(-n2nc(C)c3c2NC2=C(C(=O)CC(C)(C)C2)C3c2ccccc2OCC(=O)O)cc1 (stereo not shown),15.7
13,CC(=O)Nc1ccc(S(=O)(=O)NNC(=O)c2cccc(Br)c2)cc1,23.9
14,Cc1cc2c(ncn2C)c(NS(=O)(=O)c2cc(Cl)ccc2Cl)c1C,-1.29
15,CCCNC(=O)CSc1nc(-c2cccs2)cc(C(F)(F)F)n1,-6.22
16,COc1ccc(N(CC(=O)NCCSC2CCCCC2)S(=O)(=O)c2ccccc2)cc1OC,4.54
17,O=C(Cc1ccccc1)n1nc(-c2ccccc2)nc1NCc1ccco1,15.3
18,CC1CCN(c2c(NCc3ccc(C(=O)N4CCc5ccccc54)cc3)c(=O)c2=O)CC1,6.24
19,CC(C)C(=O)Nc1c2c(nn1-c1ccc([N+](=O)[O-])cc1)CS(=O)(=O)C2,19.6
20,COc1ccc2c(=O)c(-c3ccccc3)c(C)oc2c1,11.8
21,O=C(O)CS(=O)CC(=O)Nc1cccc(C(F)(F)F)c1 (stereo not shown),7.67
22,CCc1ccc([C@@H]2CC=C(C(=O)O)[C@H](c3ccccc3F)N2S(=O)(=O)c2ccc(C)cc2)cc1,8.48
